Screen size: about 2,000 compounds; about 110 (5.5%) showed an effect of 50% or more. The list shows a part of the results.
Biological target: Genome polyprotein (dengue virus type 2) (UniProt P29990)
[1] = Thailand/16681/1984, Concentration 25.0 uM, Number of replicates 1.0

CC1(C)Cc2sc(NC(=O)Cc3ccc(S(N)(=O)=O)cc3)c(C#N)c2CN1CC1CCCCC1
inhibition (Thailand/16681/1984, Concentration 49.5 uM, Number of replicates 2.0, Standard deviation 0.009484052439315419 %): 8.25% | inhibition (Thailand/16681/1984, Concentration 99.01 uM, Number of replicates 2.0, Standard deviation 0.7150155530159198 %): 14.5% | inhibition (Thailand/16681/1984, Concentration 198.0 uM, Number of replicates 2.0, Standard deviation 0.2762742778628508 %): 23.9%

Cc1c(C(=O)NCCc2n[nH]c(=O)[nH]2)ccc(O)c1NC(=O)c1ccncc1F
inhibition (Thailand/16681/1984, Concentration 49.5 uM, Number of replicates 2.0, Standard deviation 1.0172201525894917 %): -0.387% | inhibition (Thailand/16681/1984, Concentration 99.01 uM, Number of replicates 2.0, Standard deviation 2.3283401843548477 %): -1.06% | inhibition (Thailand/16681/1984, Concentration 198.0 uM, Number of replicates 2.0, Standard deviation 0.008708044664532838 %): 2.8%

C[C@@H](c1ccccc1)N(Cc1ccncc1)C(=O)C1CCN(c2ccc(C=O)cc2)CC1
inhibition [1]: 13.9%

COc1ccc([C@H](C)N(C)C(=O)C2CCN(c3ccc(C=O)cc3)CC2)cc1
inhibition [1]: 15.9%

O=Cc1ccc(N2CCC(C(=O)N3CCC(O)(c4ccc(Br)cc4)CC3)CC2)cc1
inhibition [1]: 14.6%

Nc1ccc(-c2cccc3c2CCB(O)O3)cn1
inhibition (Thailand/16681/1984, Concentration 49.5 uM, Number of replicates 2.0, Standard deviation 1.624587027904312 %): 0.39% | inhibition (Thailand/16681/1984, Concentration 99.01 uM, Number of replicates 2.0, Standard deviation 2.612012013848058 %): 1.77% | inhibition (Thailand/16681/1984, Concentration 198.0 uM, Number of replicates 2.0, Standard deviation 2.3581154998349447 %): 4.81%

Cc1cc(CO)c2cccc(Cc3ccccc3NC(=O)Cc3cccc(CN)c3)c2n1
inhibition (Thailand/16681/1984, Concentration 49.95 uM, Number of replicates 2.0, Standard deviation 1.4858035354408357 %): -0.82% | inhibition (Thailand/16681/1984, Concentration 99.9 uM, Number of replicates 2.0, Standard deviation 1.2081673980721888 %): 5.26%

CCn1ccnc(N[C@@H](CO)Cc2c[nH]c3ccccc23)c1=O
inhibition (Thailand/16681/1984, Concentration 49.5 uM, Number of replicates 2.0, Standard deviation 0.9468711829394424 %): -2.46% | inhibition (Thailand/16681/1984, Concentration 99.01 uM, Number of replicates 2.0, Standard deviation 0.21359432769441944 %): -0.899% | inhibition (Thailand/16681/1984, Concentration 198.0 uM, Number of replicates 2.0, Standard deviation 0.5745114470721225 %): 3.07%

CCn1ccnc(N2CC[C@H](c3cccc(C#N)c3)C2)c1=O
inhibition (Thailand/16681/1984, Concentration 50.0 uM, Number of replicates 2.0, Standard deviation 0.8963946841699463 %): 7.12% | inhibition (Thailand/16681/1984, Concentration 100.0 uM, Number of replicates 2.0, Standard deviation 1.1353241568538404 %): 15.9% | inhibition (Thailand/16681/1984, Concentration 200.0 uM, Number of replicates 2.0, Standard deviation 0.6166454829410692 %): 29.2%

CNC(=O)c1cc(Cl)ccc1NS(=O)(=O)Cc1noc(C)n1
inhibition (Thailand/16681/1984, Concentration 49.5 uM, Number of replicates 2.0, Standard deviation 0.1867091902041082 %): -5.82%

c1cnc2c(C3CCN(Cc4csc5ccccc45)CC3)c[nH]c2c1
inhibition (Thailand/16681/1984, Concentration 49.5 uM, Number of replicates 2.0, Standard deviation 2.2496338528933 %): -1.06% | inhibition (Thailand/16681/1984, Concentration 99.01 uM, Number of replicates 2.0, Standard deviation 3.116500412849666 %): 0.66% | inhibition (Thailand/16681/1984, Concentration 198.0 uM, Number of replicates 2.0, Standard deviation 2.658135185708288 %): -1.07%

Cc1ccc(NC(=O)C2CCN(c3ccc(C=O)cc3)CC2)cc1Br
inhibition [1]: 8.71%

c1cnc2c(CN3CCC(c4c[nH]c5cccnc45)CC3)c[nH]c2c1
inhibition (Thailand/16681/1984, Concentration 49.5 uM, Number of replicates 2.0, Standard deviation 2.401783006640112 %): -4.14% | inhibition (Thailand/16681/1984, Concentration 99.01 uM, Number of replicates 2.0, Standard deviation 2.691377880268528 %): -3.47% | inhibition (Thailand/16681/1984, Concentration 198.0 uM, Number of replicates 2.0, Standard deviation 2.989922552884535 %): -1.51%

N#Cc1cc(Cl)ccc1NC(=O)C1CCN(c2ccc(C=O)cc2)CC1
inhibition [1]: 13.9%

CN(C(=O)C1CCN(c2ccc(C=O)cc2)CC1)[C@H]1CCN(Cc2ccccc2)C1
inhibition [1]: 13.8%

Cc1ccccc1OC1CN(C(=O)C2CCN(c3ccc(C=O)cc3)CC2)C1
inhibition [1]: 8.5%

O=C(c1cc2ccccc2[nH]1)N1CCC[C@H](c2c[nH]c3ncccc23)C1
inhibition (Thailand/16681/1984, Concentration 49.5 uM, Number of replicates 2.0, Standard deviation 0.6846779142829902 %): 3.74% | inhibition (Thailand/16681/1984, Concentration 99.01 uM, Number of replicates 2.0, Standard deviation 0.6286192340156203 %): 6.35% | inhibition (Thailand/16681/1984, Concentration 198.0 uM, Number of replicates 2.0, Standard deviation 0.39513209958624096 %): 4.86%

O=Cc1ccc(N2CCC(C(=O)Nc3ccn([C@H]4C[C@H](O)[C@@H](CO)O4)c(=O)n3)CC2)cc1
inhibition [1]: 12%

CC(C)(CO)NC(=O)c1cc(Cl)cc(NC(=O)c2cc(Cc3ccccc3)c[nH]2)c1
inhibition (Thailand/16681/1984, Concentration 49.5 uM, Number of replicates 2.0, Standard deviation 0.8087393545109293 %): 4.06% | inhibition (Thailand/16681/1984, Concentration 99.01 uM, Number of replicates 2.0, Standard deviation 0.3574046010228052 %): 6.02% | inhibition (Thailand/16681/1984, Concentration 198.0 uM, Number of replicates 2.0, Standard deviation 0.9223949064289227 %): 9.8%

NCc1cccc(NC(=O)C2(NC(=O)OCc3ccccc3)CC2)c1
inhibition (Thailand/16681/1984, Concentration 49.5 uM, Number of replicates 2.0, Standard deviation 1.7759278472435331 %): -2.62% | inhibition (Thailand/16681/1984, Concentration 99.01 uM, Number of replicates 2.0, Standard deviation 1.0159093223805302 %): -3.21% | inhibition (Thailand/16681/1984, Concentration 198.0 uM, Number of replicates 2.0, Standard deviation 1.1412237884146983 %): -2.7%

Cc1cc(CO)c2cccc(Cc3ccccc3NC(=O)C3(C(N)=O)CC3)c2n1
inhibition (Thailand/16681/1984, Concentration 49.95 uM, Number of replicates 2.0, Standard deviation 1.6381227411846766 %): -4.94% | inhibition (Thailand/16681/1984, Concentration 99.9 uM, Number of replicates 2.0, Standard deviation 0.7463635544405988 %): -0.551%

COc1cc(Cc2cnn(-c3ccc(F)cc3)c2)nc(N2CCNCC2)n1
inhibition (Thailand/16681/1984, Concentration 49.5 uM, Number of replicates 2.0, Standard deviation 0.031215136118926425 %): 0.871% | inhibition (Thailand/16681/1984, Concentration 99.01 uM, Number of replicates 2.0, Standard deviation 1.7579341775024742 %): 1.83% | inhibition (Thailand/16681/1984, Concentration 198.0 uM, Number of replicates 2.0, Standard deviation 1.6450393762001025 %): 5.51%

From ChEMBL document CHEMBL5606460, “ASAP - DENV-2 NS2B-NS3 protease fluorescence single point” (2024)
